The assay relates to voltage-gated sodium channels (site 2).

Consider `COc1ccc(C(=O)O[C@H]2CC[C@@]3(C)[C@@H]4CC[C@H]5[C@]6(O)C[C@H](O)[C@@]7(O)[C@@H](CN8C[C@@H](C)CC[C@H]8[C@@]7(C)O)[C@]6(O)C[C@@]53O[C@]24O)cc1OC` [Veratridine, reference compound], for which, for the setting “rat cortex tissue, [3H]-batrachotoxin, read-out: Na+ (IC50 [μM])”, the IC50 worked out at 16.7 µM.

For `Cl.O=C1CCCN1CCCCN1CCN(c2ccccc2Cl)CC1` [S-75, 1-(4-(4-(2-chlorophenyl)piperazin-1-yl)butyl)pyrrolidin-2-one hydrochloride], the “affinity toward sodium channel, times lower than veratridine” value (vs reference veratridine) is listed as “about 3.5 times”.

(Values after PMC8625052, “The Antiarrhythmic Activity of Novel Pyrrolidin-2-one Derivative S-75 in Adrenaline-Induced Arrhythmia” (Pharmaceuticals, 2021).)
